Some of the results follow.
Legend:
Experiment in all cases: glycan array binding signal (z-score within array); higher = stronger binding
Settings in all cases: glycan notation: IUPAC condensed, linker removed; mutation: I144G
[1] = target: Neu5Gc(a2-8)Neu5Gc(a2-3)Gal(b1-4)GlcNAc(b1-3)Gal(b1-4)GlcNAc
Summary of the method: (§1)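 The Consortium for Functional Glycomics database supplied 3228 glycan arrays, of which those lacking an available protein sequence were dropped. The binding signal, a within-array Z-score, was averaged across arrays of the same protein sequence and across linkers. Negative scores can be read as non-binding.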

[2] = target: Neu5Gc(a2-8)Neu5Gc(a2-6)Gal(b1-4)GlcNAc
Summary of the method: as §1

[3] = target: Neu5Gc(b2-6)Gal(b1-4)GlcNAc
Summary of the method: as §1

B1: rAAL-I144G (Agrocybe aegerita), Q6WY08 (protein)
chain: MQGVNIYNISAGTSVDLAAPVTTGDIVTFFSSALNLNAGAGNPNNTTLNLFAENGAYLLHIAFRLQENVIIFNSRQPDGPWLVEQRVSDVANQFAGIDGKAMVTVFDHGDKYQVVINEKTVIQYTKQISGLTLSLSYNATEETSGFSTVVEAVTYTGLALEHHHHHH
glycan array binding signal (z-score) [1]: 0.018
glycan array binding signal (z-score) [2]: -0.126
glycan array binding signal (z-score) [3]: -0.076

— the supplement of paper PMC8728848
